# Some of the results follow. At the low end of the ranking, values are background and their order means little.
# Target: SIX1 homeodomain (reference allele) (UniProt Q15475)
# Test: universal protein binding microarray
# Conditions: Universal all-10-mer PBM (8x60K, AMADID 030236), 300 nM GST-tagged protein, Alexa Fluor 488 anti-GST; buffer, salt, pH and temperature not stated; high values mean tight binding; most listed sequences are background and not binding sites; double strand, one strand shown
row,Sequence,binding signal
1,AAATACAC,0.113 E-score
2,CGATGAAG,-0.0522 E-score
3,CATGAGAC,0.296 E-score
4,CCAACCCC,-0.0124 E-score
5,AATCAATA,0.144 E-score
6,AGTTACTA,-0.0995 E-score
7,ACCCACAG,0.13 E-score
8,GACCGTGC,-0.25 E-score
9,GTACTGAC,-0.0122 E-score
10,CCAATGAC,0.0246 E-score
11,AAGACACC,0.347 E-score
12,AGGCTGAT,0.172 E-score
13,AGTGGGAT,0.333 E-score
14,GGAAAATA,0.0296 E-score
15,CCAATCAC,-0.153 E-score
16,GAATACTC,0.155 E-score
17,AGAGAGAC,-0.101 E-score
18,AAAGGCTA,-0.105 E-score
19,GACACCCC,0.436 E-score
20,ACCTTTGA,0.0161 E-score
21,AGCACAAA,-0.173 E-score
22,AGCAGGTG,0.143 E-score
23,AGATTTTC,-0.193 E-score
24,GCGGTGGA,0.0422 E-score

row,Sequence,binding signal
1,ACTTGGAC,-0.0325 E-score
2,ACAATCCT,0.0664 E-score
3,CCCATTGA,0.0209 E-score
4,ATGCCGTG,-0.152 E-score
5,AGGACCTG,-0.27 E-score
6,AGAATCCC,0.175 E-score
7,GGGCGTGA,0.105 E-score
8,ATCGCACC,0.207 E-score
9,AACAGTAC,-0.108 E-score
10,CCTTGAAA,-0.214 E-score
11,ACGTGTCA,0.167 E-score
12,ATCCTTGG,0.189 E-score
13,CGGAGACC,0.0432 E-score
14,ATGTAGCC,-0.0461 E-score
15,ACCACGCC,-0.0819 E-score
16,AGTATCGA,0.418 E-score
17,GGCTTCGA,0.0639 E-score
18,AGCTCTGC,-0.318 E-score
19,AGACTTCA,-0.257 E-score
20,CCAGTTAA,-0.0573 E-score
21,AGTTGTGG,-0.155 E-score
22,AACCCCAA,-0.0205 E-score
23,AATCCTGC,0.00817 E-score
24,GAGCGCAC,-0.0644 E-score

row,Sequence,binding signal
1,AACCCGAT,0.25 E-score
2,CCAAGGGG,0.0934 E-score
3,GCAGAGGC,-0.24 E-score
4,GCGAGAGC,-0.263 E-score
5,CGGCCCCG,-0.197 E-score
6,CTTGCTTA,-0.202 E-score
7,CGAGAGCA,0.0203 E-score
8,GTCAATTA,-0.019 E-score
9,GACAGCGC,-0.267 E-score
10,ACTCCTTC,-0.109 E-score
11,GAACCTGA,-0.0542 E-score
12,ATAAGTCC,-0.137 E-score
13,CCCGTCCG,-0.0107 E-score
14,CTGGTTGA,-0.0885 E-score
15,ACGTATCT,0.339 E-score
16,AAGATGTC,-0.251 E-score
17,GGTGTTTA,0.203 E-score
18,AAATAAGT,-0.152 E-score
19,ACAAATCG,-0.205 E-score
20,ATGCTGAC,-0.0277 E-score
21,ATGTCGCG,-0.00428 E-score
22,CGGGAATA,0.189 E-score
23,AGGTAAAG,0.0336 E-score
24,TAGTCGGA,-0.0173 E-score

row,Sequence,binding signal
1,CAACAAGG,-0.111 E-score
2,TGCATTAA,-0.0197 E-score
3,CGGGACCG,-0.23 E-score
4,AACTCGAT,0.138 E-score
5,ACCCTGCC,-0.088 E-score
6,AAAAATTT,-0.217 E-score
7,ATCCAAGC,0.169 E-score
8,TATCTCAA,0.329 E-score
9,AATAATAC,0.345 E-score
10,ACGACTCC,-0.13 E-score
11,GATTGCAC,-0.0162 E-score
12,AACGAAGC,-0.298 E-score
13,GTCACGAC,-0.116 E-score
14,CGAATCTC,-0.0912 E-score
15,GTAACGAA,-0.114 E-score
16,AGCCGGGA,-0.00437 E-score
17,ACCATGGC,0.0455 E-score
18,CAAACACG,-0.103 E-score
19,CCCAGTTC,-0.0301 E-score
20,CTCGGTGC,-0.136 E-score
21,AGATGTTG,0.0187 E-score
22,CGAAGAAC,-0.258 E-score

# From article PMC10668032
